No constants are given. Whether binding was seen depends on the method and setting. Some entries that bind do so weakly or less than the wild type. Sequences can lack the tags named with a protein.
T1: Sll0528 fused to the T18 fragment of adenylate cyclase CyaA (bacterial two-hybrid) (Synechocystis sp. PCC 6803) (UniProt Q55518)
T1 sequence: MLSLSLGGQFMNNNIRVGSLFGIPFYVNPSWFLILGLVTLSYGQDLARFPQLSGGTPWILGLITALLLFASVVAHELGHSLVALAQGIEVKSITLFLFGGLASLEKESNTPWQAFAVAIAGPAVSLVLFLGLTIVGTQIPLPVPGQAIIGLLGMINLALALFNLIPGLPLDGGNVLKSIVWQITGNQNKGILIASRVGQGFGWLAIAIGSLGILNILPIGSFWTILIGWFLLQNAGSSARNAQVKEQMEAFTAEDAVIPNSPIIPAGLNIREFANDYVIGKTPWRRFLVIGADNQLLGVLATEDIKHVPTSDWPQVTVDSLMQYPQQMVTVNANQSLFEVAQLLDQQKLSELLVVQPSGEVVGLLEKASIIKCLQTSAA


Biological target: T1, Sll0528 fused to the T18 fragment of adenylate cyclase CyaA (bacterial two-hybrid) (Synechocystis sp. PCC 6803)
Test: two-hybrid; bacterial two-hybrid (BACTH, adenylate cyclase T18/T25) in E. coli BTH101; T18 at the N- or C-terminus of Sll0528, T25 at the N- or C-terminus of the partner (four combinations); X-Gal reporter plates with IPTG, 2 days at 30°C; blue colonies are positive

binding | Binder
no binding | heat shock protein, molecular chaperone Hsp17 (Sll1514) fused to the T25 fragment of CyaA (bacterial two-hybrid) (protein, UniProt P72977 1-146) MSLILYNPLREMDNFQQQMNQLFEEVFVPTDRHGDRQGFNPKAELTETEEAYVLKLELPGMDPDNLDIQAARDAVTVSGDRQDTHSTEKDGVRRTEFRYGSFRRVIPVPGAIQNTEVKANYDAGILTLTLPKVEEAKNKVVKVQLS
binds | unknown protein Ssl1972 fused to the T25 fragment of CyaA (bacterial two-hybrid) (protein, UniProt P72925 1-93) MISIDLTLKYSPMPVSVQRKEKDGAEALYQTIVTAMQGDRPQVLELTCEKQTEKKVAIMSDQISAVIVSEKDGAASAGKVPGFAALGQIVNQG
binds | signal recognition particle protein Slr1531 fused to the T25 fragment of CyaA (bacterial two-hybrid) (protein, UniProt P74214 1-482) MFDALADRLEDAWKKLRGQDKISESNIKEALQEVRRALLAADVNLQVVKGFIKDVEQKALGADVISGVNPGQQFIKIVYDELVNLMGESNVPLAQAEQAPTVILMAGLQGTGKTTATAKLALYLRKQKRSALMVATDVYRPAAIDQLKTLGQQIDVPVFDLGSDANPVEIARQGVEKAKELGVDTVLIDTAGRLQIDPQMMAELAEIKQVVKPDDTLLVVDAMTGQEAANLTHTFHEQIGITGAILTKLDGDTRGGAALSVRQISGQPIKFVGVGEKVEALQPFYPDRLASRILNMGDVLTLVEKAQEAIDVGDVEKLQNKILEATFDFDDFIKQMRFMKNMGSLGGLLKMIPGMNKLSSGDIEKGEKELKRTEAMISSMTTEERKNPDLLAKSPSRRRRIAQGSGHSETDVSKLITNFTKMRTMMQQMGMGGMPGGMPGMGAMPGMGGGMFGGQPGPGFRGYRGGGGKPKKKKKKKGFGQL
binds | transcription factor RbcR (Sll0998) fused to the T25 fragment of CyaA (bacterial two-hybrid) (protein, UniProt P73123 1-345) MSDIPFTLDQLRILKAIASEGSFKRAADTLYVSQPAVSLQVQNLEKQLSVPLFDRGGRKAQLTEAGHLLLNYGEKIITLCQETCRAIEDLQNLQGGTLIVGASQTTGTYLLPRMIGMFRQQYPDVTVQLQVHSTRRTAWGVANGQVDLAIIGGEVPAELQETLTVLPYAEDELALILPVLHPLAQAETIQKEDLYKLKFISLDSQSTIRKVIDKVLSQGEIDTKRLKIEMELNSIEAIKNAVQSGLGAAFVSTTAIEKELEMNVLHIAPIKNVEIRRVLSVIINPNRYRSKASAAFIREVLPQFSTHPDALDPERLFANPYSSNNGDRQGDGKDGKGSIEIDSVT
binds | zinc metalloprotease FtsH (Sll1463) fused to the T25 fragment of CyaA (bacterial two-hybrid) (protein, UniProt P73437 1-628) MAIKPQPQWQRRLASVLLWGSTIYLLVNLLAPALFRSQPPQVPYSLFIDQVEGDKVASVYVGQNEIRYQLKPEAEDEGKEKAAEGQILRTTPIFDLELPKRLEAKGIEFAAAPPAKNSWFGTLLSWVIPPLIFVGIWSFFLNRNNNGAPGGALAFTKSKAKVYVEGDSTKVTFDDVAGVEEAKTELSEVVDFLKFPQRYTALGAKIPKGVLLVGPPGTGKTLLAKAAAGEAGVPFFIISGSEFVELFVGAGAARVRDLFEQAKKQAPCIVFIDELDAIGKSRASGAFMGGNDEREQTLNQLLTEMDGFSAAGATVIVLAATNRPETLDPALLRPGRFDRQVLVDRPDLAGRLKILEIYAKKIKLDKEVELKNIATRTPGFAGADLANLVNEAALLAARNKQDSVTEADFREAIERVVAGLEKKSRVLSDKEKKIVAYHEVGHALVGAVMPGGGQVAKISIVPRGMAALGYTLQMPTEDRFLLNESELRDQIATLLGGRAAEEIVFDSITTGAANDLQRATDLAEQMVTTYGMSKVLGPLAYDKGQQNNFLGQGMGNPRRMVSDDTAKEIDLEVKEIVEQGHNQALAILEHNRDLLEAIAEKILEKEVIEGEELHHLLGQVQAPGTLVV
binds | nucleoid-associated protein ebfC (Slr1847) fused to the T25 fragment of CyaA (bacterial two-hybrid) (protein, UniProt P73057 1-114) MAQGKGFGFGLGKIKELQEAFQKAQQVQEGAKVLQEELERMEIPGKSADGLVTVLMSGNQEPLSIEIDPSALEKGAEGLSASVTEAMKAAYAESTETMRSKMEELTSGLNLPGM
binds | global nitrogen regulator NtcA (Sll1423) fused to the T25 fragment of CyaA (bacterial two-hybrid) (protein, UniProt P33779 1-225) MDQSLTQDRPLAAVFRRLGSELMPPVVETFDRSKTIFFPGDPAERVYFLLKGAVKLSRVYEAGEEITVALLRENSVFGVLSLVTGQRSDRFYHAVAFTPVELLSAPIEQVEQALKEHPDLSLLMLQGLSSRILQTEMMIETLAHRDMGSRLVSFLLILCRDFGVPAPDGIRIDLKLSHQAIAEAIGSTRVTVTRLLGDLREGNMISITKKKITVHNPVALSQQFT
binds | probable Clp protease subunit Slr0165 fused to the T25 fragment of CyaA (bacterial two-hybrid) (protein, UniProt P74467 1-202) MPIGVPSVPFRLPGSQYERWIDIYTRLSQERIIFLGQEVNDSIANRIVAFLLYLDSDDPSKPIYLYINSPGGSVTAGMAIYDTMQYIKAEVITICVGLAASMGAFLLASGAPGKRLALPHARIMIHQPMGGTGRRQATDIDIEAREILRIRQQLNEIMAQRTGQTVEKIAKDTDRDYFLSAAEAKEYGLIDKVIENSTMGNN
